# Source: patent publication US20110212091A1 (LICENTIA, published 2011)
# B1: FGFR4 R388, V5-His tagged (FGFR4R388-V5-His) (receptor, not shown: small tags and cut ends)
# chain: not shown
# notes: Expressed in transfected MDA-MB-231 or COS-1 cells and analysed from cell lysates; also called FGFR4 Arg388; V5-tagged FGFR4 R388
# Molecular target: HA-tagged MT1-MMP (human, UniProt P50281 part only)
# Experiment: co-immunoprecipitation from co-transfected cells
binder,measurement,value
B1,binding result,binds
